Among all 39,000 compounds or so, about 220 (0.56%) showed activity. This is one part of the list.
System: Escherichia coli K-12 BW25113
Assay: relative growth (OD600 normalised to plate interquartile mean) (fraction); higher = less growth inhibition, active = 0.2 or less
Conditions: 50 µM; LB; incubation time: overnight (16-24 h)
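Also: static incubation at 37 °C against the wild-type strain, values averaged over two biological replicates.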

Q: For `CC(C)NC(=O)N(C)C[C@H]1Oc2ccc(NS(=O)(=O)c3ccc(Cl)cc3)cc2C(=O)N([C@H](C)CO)C[C@@H]1C`, which relative growth is on record?
A: Its relative growth is inactive: 1.01.

Q: With `C=C1OC(=O)C2=C1O[C@H](/C=C/C)[C@@H](O)[C@@H]2O` as the compound, how does the relative growth read?
A: The relative growth was inactive: 1.01.

Q: How did the relative growth turn out when `CC/C=C\C/C=C\C/C=C\C/C=C\C/C=C\CCCC(=O)O` was run?
A: The relative growth was inactive: 0.985.

Q: How did the relative growth turn out when `O=C(N[C@H]1CC[C@H](CC(=O)N2CCOCC2)O[C@@H]1CO)c1ccccn1` was run?
A: Its relative growth is inactive: 1.03.

Q: `COC(=O)[C@H]1CCC(=O)N1` was tested. Which relative growth did it give?
A: The relative growth was inactive: 1.02.

Q: With `Cc1noc(C)c1NC(=O)Nc1ccc2c(c1)CC(=O)N([C@H](C)CO)C[C@@H](C)[C@@H](CN(C)Cc1ccc(-c3ccccc3)cc1)O2` as the compound, how does the relative growth read?
A: The relative growth was inactive: 0.957.

Q: For `Cn1c(=O)c2c(ncn2CCCN)n(C)c1=O`, which relative growth is on record?
A: Its relative growth is inactive: 1.01.

Q: Which relative growth does the source give for `C[C@@H]1CCCCO[C@H](CN(C)Cc2ccc(C(=O)Nc3ccccc3N)cc2)[C@@H](C)CN([C@@H](C)CO)C(=O)c2cc(N(C)C)ccc2O1` here?
A: Its relative growth is inactive: 0.983.

Q: With `CC(C)NC(=O)N(C)C[C@H]1Oc2ccc(NC(=O)NC3CCCCC3)cc2CC(=O)N([C@@H](C)CO)C[C@@H]1C` as the compound, how does the relative growth read?
A: Its relative growth is inactive: 1.

Q: For `COc1ccc(NC(=O)Nc2ccc3c(c2)C(=O)N([C@H](C)CO)C[C@@H](C)[C@H](CN(C)S(=O)(=O)c2ccc(F)cc2)OCCCC[C@@H](C)O3)cc1`, which relative growth is on record?
A: The relative growth was inactive: 1.01.

Q: `CCCc1nc(C(C)(C)O)c(C(=O)OCc2oc(=O)oc2C)n1Cc1ccc(-c2ccccc2-c2nn[nH]n2)cc1` was tested. Which relative growth did it give?
A: The relative growth was inactive: 1.1.

Q: For `Nc1ccn(C2CCC(CO)O2)c(=O)n1` (configuration not stated), which relative growth is on record?
A: The relative growth was inactive: 1.1.

Q: For `Cc1cccc(S(=O)(=O)N2C[C@@H](O)COC[C@@H]3O[C@H](CC(=O)NCCCN4CCOCC4)CC[C@H]32)c1`, which relative growth is on record?
A: The relative growth was inactive: 0.979.

Q: How did the relative growth turn out when `CC(C)NC(=O)N(C)C[C@H]1Oc2ccc(NC(=O)CCC(F)(F)F)cc2CC(=O)N([C@@H](C)CO)C[C@@H]1C` was run?
A: Its relative growth is inactive: 1.01.

Q: Which relative growth does the source give for `COc1ccc(NC(=O)N(C)C[C@H]2Oc3ccc(NS(=O)(=O)c4c(C)noc4C)cc3C(=O)N([C@@H](C)CO)C[C@H]2C)cc1` here?
A: The relative growth was inactive: 1.

Q: Which relative growth does the source give for `Cc1ccc(S(=O)(=O)Nc2ccc3c(c2)CC(=O)N([C@@H](C)CO)C[C@H](C)[C@@H](CN(C)Cc2ccc(Cl)c(Cl)c2)O3)cc1` here?
A: The relative growth was inactive: 1.02.

Q: With `C[C@@H]1CN([C@H](C)CO)C(=O)Cc2cc(NS(C)(=O)=O)ccc2O[C@@H]1CN(C)S(C)(=O)=O` as the compound, how does the relative growth read?
A: The relative growth was inactive: 1.

Q: `C[C@H]1CN([C@@H](C)CO)C(=O)c2cc(C#CCC3CCCC3)cnc2O[C@@H]1CN(C)C(=O)c1cnccn1` was tested. Which relative growth did it give?
A: The relative growth was inactive: 0.997.

Q: Which relative growth does the source give for `COc1ccc(NC(=O)Nc2ccc3c(c2)C(=O)N([C@@H](C)CO)C[C@H](C)[C@H](CN(C)C(=O)NC(C)C)OCCCC[C@@H](C)O3)cc1` here?
A: Its relative growth is inactive: 1.

Q: Which relative growth does the source give for `O=C(C[C@@H]1C=C[C@@H](NC(=O)CN2CCOCC2)[C@H](CO)O1)NC1CCCCC1` here?
A: Its relative growth is inactive: 0.997.

Q: `C[C@H]1CN([C@@H](C)CO)C(=O)Cc2cc(NS(=O)(=O)c3cccs3)ccc2O[C@H]1CN(C)S(=O)(=O)c1cccs1` was tested. Which relative growth did it give?
A: Its relative growth is inactive: 1.

Q: `C[C@@H]1CN([C@@H](C)CO)C(=O)c2cc(NC(=O)CCCCCC(=O)Nc3ccccc3N)ccc2O[C@@H]1CN(C)Cc1ccc(C(F)(F)F)cc1` was tested. Which relative growth did it give?
A: Its relative growth is inactive: 1.02.

Q: How did the relative growth turn out when `C[C@@H]1CN([C@@H](C)CO)C(=O)c2cccc(N(C)C)c2O[C@H]1CN(C)S(=O)(=O)c1ccc(Cl)cc1` was run?
A: Its relative growth is inactive: 0.977.

Q: For `O=C(C[C@@H]1C=C[C@@H](NC(=O)c2cnccn2)[C@H](CO)O1)NCc1ccccc1F`, which relative growth is on record?
A: The relative growth was inactive: 0.986.

Q: How did the relative growth turn out when `Cc1ccc(S[C@]2(C(=O)NCC(C)C)CC(=O)N(Cc3ccccc3)[C@@H]2c2ccc(CO)cc2)cc1` was run?
A: The relative growth was inactive: 0.988.

Q: `CSc1nc(=O)c(C)n[nH]1` was tested. Which relative growth did it give?
A: The relative growth was inactive: 0.98.

Q: `C[C@@H]1CN([C@@H](C)CO)C(=O)c2cc(-c3ccc(C(=O)N(C)C)cc3)cnc2O[C@H]1CN(C)C(=O)c1ccncc1` was tested. Which relative growth did it give?
A: Its relative growth is inactive: 0.993.

Q: Which relative growth does the source give for `O=C(NCC[C@H]1CC[C@@H](NS(=O)(=O)c2cccc(F)c2)[C@H](CO)O1)C1CC1` here?
A: The relative growth was inactive: 0.981.

Q: With `C[C@@H]1CN([C@@H](C)CO)C(=O)Cc2cc(NS(=O)(=O)c3ccc(Cl)cc3)ccc2O[C@H]1CN(C)C(=O)Nc1ccc(C(F)(F)F)cc1` as the compound, how does the relative growth read?
A: The relative growth was inactive: 1.04.

Q: How did the relative growth turn out when `C[C@@H]1CCCCO[C@H](CN(C)C(=O)CCC(F)(F)F)[C@H](C)CN([C@@H](C)CO)C(=O)c2cc(NS(=O)(=O)c3ccc(F)cc3)ccc2O1` was run?
A: Its relative growth is inactive: 0.983.

Q: For `C[C@H]1CCCCO[C@H](CN(C)S(=O)(=O)c2cccs2)[C@@H](C)CN([C@@H](C)CO)C(=O)c2cc(NC(=O)Nc3ccc(F)cc3)ccc2O1`, which relative growth is on record?
A: The relative growth was inactive: 1.02.

Q: Which relative growth does the source give for `C[C@@H]1CN([C@@H](C)CO)S(=O)(=O)c2ccc(C#CCN(C)C)cc2O[C@@H]1CN(C)Cc1ccncc1` here?
A: Its relative growth is inactive: 1.

Q: `O=C1OCCN/C1=C/C(=O)c1ccccc1` was tested. Which relative growth did it give?
A: The relative growth was inactive: 1.01.

Q: How did the relative growth turn out when `O=C(C[C@H]1CC[C@@H]2[C@H](COC[C@H](O)CN2C(=O)Nc2ccc(Cl)c(Cl)c2)O1)NCc1ccc(Cl)c(Cl)c1` was run?
A: Its relative growth is inactive: 0.963.

Q: For `O=C(N[C@@H]1CC[C@H](CC(=O)N2CCOCC2)O[C@@H]1CO)c1ccccn1`, which relative growth is on record?
A: The relative growth was inactive: 0.863.

Q: Which relative growth does the source give for `COC(=O)OCOc1c2n(ccc1=O)N([C@@H]1c3ccccc3SCc3c1ccc(F)c3F)[C@@H]1COCCN1C2=O` here?
A: The relative growth was inactive: 1.03.

Q: With `C[C@@H]1CN([C@H](C)CO)C(=O)c2cccc(NC(=O)c3ccc(-c4nccs4)cc3)c2O[C@@H]1CN(C)C(=O)NC1CCCCC1` as the compound, how does the relative growth read?
A: Its relative growth is inactive: 0.992.

Q: `C[C@@H]1CN([C@H](C)CO)C(=O)c2cccc(NS(=O)(=O)c3cn(C)cn3)c2O[C@@H]1CN(C)C(=O)Nc1ccccc1` was tested. Which relative growth did it give?
A: Its relative growth is inactive: 0.98.

Q: With `Cc1ccc(S(=O)(=O)Nc2ccc3c(c2)C(=O)N([C@H](C)CO)C[C@H](C)[C@@H](CN(C)C(=O)Cc2ccccc2)OCCCC[C@H](C)O3)cc1` as the compound, how does the relative growth read?
A: Its relative growth is inactive: 0.996.

Q: With `CN(C)c1nc(SCCO)nc(N(C)C)n1` as the compound, how does the relative growth read?
A: The relative growth was inactive: 1.02.

Q: `C[C@@H]1CN([C@H](C)CO)C(=O)c2cc(NC(=O)Cc3ccccc3)ccc2O[C@@H](C)CCCCO[C@@H]1CN(C)Cc1ccc(C(=O)O)cc1` was tested. Which relative growth did it give?
A: Its relative growth is inactive: 0.902.

Q: `COc1cccc(C#Cc2cnc3c(c2)C(=O)N([C@@H](C)CO)C[C@H](C)[C@H](CN(C)C(=O)C2CCOCC2)O3)c1` was tested. Which relative growth did it give?
A: Its relative growth is inactive: 1.01.

Q: How did the relative growth turn out when `Cc1ccc(C(N)=O)cc1N` was run?
A: Its relative growth is inactive: 1.02.

Q: `CC(C)NC(=O)Nc1ccc2c(c1)C(=O)N([C@@H](C)CO)C[C@@H](C)[C@@H](CN(C)S(=O)(=O)c1cn(C)cn1)OCCCC[C@H](C)O2` was tested. Which relative growth did it give?
A: Its relative growth is inactive: 0.995.

Q: With `C[C@H]1CCCCO[C@@H](CN(C)CC2CCCCC2)[C@@H](C)CN([C@@H](C)CO)C(=O)c2cc(NS(=O)(=O)c3ccc(Cl)cc3)ccc2O1` as the compound, how does the relative growth read?
A: Its relative growth is inactive: 0.958.

Q: With `C[C@H](CO)N1C[C@H](C)[C@@H](CN(C)C(=O)c2ccccc2)OCCCC[C@H](C)Oc2ccc(NC(=O)Nc3ccc(F)cc3)cc2C1=O` as the compound, how does the relative growth read?
A: The relative growth was inactive: 0.999.

Q: With `C[C@@H]1CN([C@@H](C)CO)C(=O)c2cc(NS(=O)(=O)c3ccc(Cl)cc3)ccc2O[C@@H]1CN(C)Cc1ccc(Cl)c(Cl)c1` as the compound, how does the relative growth read?
A: The relative growth was inactive: 1.04.

Q: Which relative growth does the source give for `CO[C@@H]1CN(C)C(=O)c2cc(NC(=O)Nc3ccc(Cl)cc3)ccc2OC[C@@H](C)N(C(=O)Nc2c(C)noc2C)C[C@@H]1C` here?
A: The relative growth was inactive: 0.993.

Q: Which relative growth does the source give for `CC(C)[Si](C#CCCc1ccccc1)(O[C@H](c1ccccc1)c1cn(Cc2ccccc2)nn1)C(C)C` here?
A: Its relative growth is inactive: 0.996.

Q: With `C[C@H]1CCCCO[C@@H](CN(C)Cc2ccc(C(=O)O)cc2)[C@@H](C)CN([C@@H](C)CO)C(=O)c2cc(NC(=O)Nc3cccc4ccccc34)ccc2O1` as the compound, how does the relative growth read?
A: The relative growth was inactive: 0.97.

Q: With `C[C@H]1CN([C@@H](C)CO)C(=O)Cc2cc(NC(=O)Nc3cccc4ccccc34)ccc2O[C@H]1CN(C)Cc1ccc(Cl)c(Cl)c1` as the compound, how does the relative growth read?
A: The relative growth was inactive: 1.

Q: Which relative growth does the source give for `C[C@@H]1CN([C@H](C)CO)C(=O)c2cccc(NS(=O)(=O)c3cn(C)cn3)c2O[C@@H]1CN(C)S(=O)(=O)c1ccc(Cl)cc1` here?
A: The relative growth was inactive: 0.913.

Q: `C[C@@H]1CCCCO[C@@H](CN(C)Cc2ccc(C(F)(F)F)cc2)[C@H](C)CN([C@@H](C)CO)C(=O)c2cc(NC(=O)CCCN(C)C)ccc2O1` was tested. Which relative growth did it give?
A: Its relative growth is inactive: 0.914.

Q: `CC(=O)N1CCC2(CCCN2)CC1` was tested. Which relative growth did it give?
A: The relative growth was inactive: 0.92.

Q: How did the relative growth turn out when `COc1ccc(NC(=O)N(C)C[C@H]2OCCCC[C@H](C)Oc3ccc(NS(=O)(=O)c4ccc(OC)cc4)cc3C(=O)N([C@H](C)CO)C[C@@H]2C)cc1` was run?
A: The relative growth was inactive: 1.03.

Q: `COc1ccc(S(=O)(=O)N(C)C[C@@H]2Oc3ccc(NC(=O)Nc4cccc5ccccc45)cc3C(=O)N([C@@H](C)CO)C[C@H]2C)cc1` was tested. Which relative growth did it give?
A: Its relative growth is inactive: 1.

Q: How did the relative growth turn out when `COc1ccc(NC(=O)N(C)C[C@@H]2Oc3ccc(NS(=O)(=O)c4c(C)noc4C)cc3CC(=O)N([C@@H](C)CO)C[C@@H]2C)cc1` was run?
A: Its relative growth is inactive: 1.01.

Q: Which relative growth does the source give for `CS(=O)(=O)NC[C@@H]1OC[C@@H]2CN(C(=O)c3ccnnc3)CC[C@@H]21` here?
A: Its relative growth is inactive: 0.982.

Q: With `C[C@@H]1CN([C@@H](C)CO)S(=O)(=O)c2ccc(C#CC3CC3)cc2O[C@@H]1CN(C)Cc1ccc(F)cc1` as the compound, how does the relative growth read?
A: Its relative growth is inactive: 1.05.

Q: Which relative growth does the source give for `C[C@@H]1CN([C@@H](C)CO)C(=O)Cc2cc(NC(=O)Nc3ccc(C(F)(F)F)cc3)ccc2O[C@@H]1CN(C)Cc1ccncc1` here?
A: Its relative growth is inactive: 1.

Q: How did the relative growth turn out when `C[C@@H]1CCCCO[C@@H](CN(C)C(=O)Nc2ccc(C(F)(F)F)cc2)[C@H](C)CN([C@@H](C)CO)C(=O)c2cc(NC(=O)c3ccccc3)ccc2O1` was run?
A: The relative growth was inactive: 1.03.

Q: `CN1CCN(C(=O)C[C@H]2CC[C@H]3[C@@H](COC[C@@H](O)CN3CC3CCCC3)O2)CC1` was tested. Which relative growth did it give?
A: Its relative growth is inactive: 1.

Reference: the supplement of paper PMC9446081
